# Experimental data taken from PubChem BioAssay AID624417 (National Center for Advancing Translational Sciences (NCATS), 2012).
# Screen size: about 410,000 compounds; about 6,400 (1.6%) were called active. Inconclusive means that the source gave no clear call. Such entries were picked first, then a sample of the others. The call rests on the fitted dose curve; in most records, active means well fitted inhibition curve with a large enough effect; inconclusive means small, poorly fitted or top-dose-only effect; inactive means no such curve, though single readings can be large or run the other way. Potencies of inconclusive entries are left out as doubtful fits.
# Molecular target: Glucagon-like peptide 1 receptor (Homo sapiens) (UniProt P43220)
# Assay: qHTS of GLP-1 Receptor Inverse Agonists (Inhibition Mode); further: nearly all actives have a fitted effect of over 55% in size
# Details: HEK293 GLP-1R CRE-luciferase, luminescence, 24 h, GLP-1R form is constitutively active; activity change, negative = inhibition: at 38.3 µM (top of the series) unless noted
# Procedure, shortened: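 HEK293 cells stably co-expressing constitutively active GLP-1R and a cAMP-responsive luciferase reporter were seeded in DMEM with 10% Nu serum, given compounds after 12 h, and incubated 24 h at 37 deg C. Luminescence was then read.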
# On the % scale 0 is the no-effect control and ±100 the full control effect; potency means the concentration at half of the fitted maximal effect; tags describe the fitted curve by direction and shape.
# Chain of UniProt P43220 (P43220 whole entry, looked up): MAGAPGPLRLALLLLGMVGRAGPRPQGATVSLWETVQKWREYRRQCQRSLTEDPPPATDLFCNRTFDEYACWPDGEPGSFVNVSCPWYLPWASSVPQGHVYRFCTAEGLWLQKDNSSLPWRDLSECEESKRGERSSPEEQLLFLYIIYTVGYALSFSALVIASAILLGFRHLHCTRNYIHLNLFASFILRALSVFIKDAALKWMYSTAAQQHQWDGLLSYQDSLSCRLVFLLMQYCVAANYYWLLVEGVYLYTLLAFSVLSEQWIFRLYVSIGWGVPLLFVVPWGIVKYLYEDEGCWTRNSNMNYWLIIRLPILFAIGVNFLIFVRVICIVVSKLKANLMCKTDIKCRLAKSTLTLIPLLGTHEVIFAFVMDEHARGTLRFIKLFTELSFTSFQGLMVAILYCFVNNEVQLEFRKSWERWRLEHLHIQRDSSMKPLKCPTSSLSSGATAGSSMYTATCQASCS
SMILES,Potency,"activity change, negative = inhibition"
Cc1ccc(-n2nc3c(=O)n(C(C)C(=O)NCc4ccccc4Cl)nc(C)c3c2C)cc1 (configuration not stated),"inconclusive [inhibitor, partial curve, poor fit]",
Cn1c(SCC(=O)N2CCCC2)nc2c(c1=O)SCC2,inactive,
COc1ccc(Nc2cc(C)c3cc(NC(=O)c4cc(OC)cc(OC)c4)ccc3n2)cc1,"inconclusive [inhibitor, full curve, poor fit]",
Cc1cnc(NC(=O)c2sc3ccccc3c2Cl)s1,"inconclusive [inhibitor, full curve, poor fit]",
O=C(NCc1ccccc1)c1ccc(Br)cc1,"inconclusive [inhibitor, single point]",
CC(C)[C@H](NC(=O)OCc1ccccc1)C(=O)OCC(=O)NCc1ccco1,"inconclusive [inhibitor, single point]",
O=c1[nH]c(/C=C/c2cccc([N+](=O)[O-])c2)c([N+](=O)[O-])c(=O)[nH]1,inactive,
CCn1c(-c2sc(-c3ccccc3)nc2C)n[nH]c1=S,"inconclusive [inhibitor, partial curve, poor fit]",
O=C1CC(NNc2ccccc2)C(=O)N1c1cccc(Cl)c1 (configuration not stated),"inconclusive [inhibitor, single point]",
Cc1cc(Cl)ccc1OCC(=O)Nc1ccccc1CO,"inconclusive [inhibitor, single point]",
CCc1ccc(Oc2cc(C)nc(N)n2)cc1,inactive,
COc1cc(C(=O)N2CC(=O)Nc3ccc(C)cc3C2c2ccc(F)cc2)cc(OC)c1OC (configuration not stated),inactive,
CCOc1ccccc1NC(=O)c1cc(S(=O)(=O)NCc2ccco2)ccc1F,inactive,
Cc1nc(N2CCOCC2)c2c(C(=O)N3CCN(c4cccc(C)c4C)CC3)c(C)oc2n1,inactive,
COc1ccc(NC(=O)C/C(C)=N/NC(=O)c2cccs2)c([N+](=O)[O-])c1,inactive,
O=[N+]([O-])c1cccc(COc2cccc(CN3CCOCC3)c2)c1,,inactive: -7.4% [at 7.66 µM]
CCOC(=O)N1C(=O)[C@@](c2ccc(Cl)cc2)(C(C)C)N1C(=O)OCC,"inconclusive [inhibitor, partial curve]",
O=C(CC1SC(N2CCCC2)=NC1=O)Nc1ccc(C(=O)N2CCN(c3cccc(Cl)c3)CC2)cc1 (configuration not stated),"inconclusive [inhibitor, partial curve, poor fit]",
CCCN1C(=O)C2(c3ccccc31)c1c(oc3ccc(C)cc3c1=O)C(=O)N2CCOC (configuration not stated),inactive,
Cc1ccc(NC(=O)c2ccc(CSc3nccc(C)n3)cc2)cc1,"inconclusive [inhibitor, partial curve, poor fit]",
O=C(CN(CCc1ccccc1)C(=O)c1csnn1)NCc1ccc(F)cc1,inactive,
CC(OC(=O)C1=COCCO1)C(=O)NC(C)c1ccc(Cl)cc1Cl (configuration not stated),"inconclusive [inhibitor, partial curve, poor fit]",
O=C(N/N=C1\CCc2ccccc21)c1ccccc1Cl,inactive,

SMILES,Potency,"activity change, negative = inhibition"
Cc1ccc(CNC(=O)[C@H](C)N2C(=O)N3CCc4c([nH]c5ccccc45)[C@@]3(C)C2=O)cc1,"inconclusive [inhibitor, partial curve, poor fit]",
Cc1ccccc1OCCN1CCC(Cc2ccccc2)CC1,active: 8.91 µM,
N#Cc1c(C(F)(F)F)cc(-c2cccs2)nc1SC(C(=O)O)c1ccccc1 (configuration not stated),"inconclusive [inhibitor, single point]",
CCc1nnc(N/N=C/c2ccc(N3CCC(C)CC3)c([N+](=O)[O-])c2)n1N,"inconclusive [inhibitor, single point]",
CCc1nc2ccc(C(=O)Nc3cc(-c4ccccc4)ccc3OC)cn2c1N(CC)CC(=O)N(C)C,"inconclusive [inhibitor, single point]",
CCCC(=O)NC(c1ccc(Cl)cc1Cl)c1ccc2cccnc2c1O (configuration not stated),inactive,
Cc1cnc(C(=O)Nc2cccc3cccnc23)cn1,"inconclusive [inhibitor, full curve, poor fit]",
COc1ccc(NC(=O)CN2CCN(c3ccccc3)CC2)cc1,inactive,
COc1ccc(CNC(=O)c2ccc(-c3nc(CSc4ccccc4)c(C)o3)cc2)c(OC)c1,inactive,
OC(Cc1cccc(Br)c1)c1ncc(-c2ccccc2C(F)(F)F)[nH]1 (configuration not stated),"inconclusive [inhibitor, single point]",
O=C(Nc1ccc(F)cc1)Nc1ccccc1F,"inconclusive [inhibitor, single point]",
COc1ccc(S(=O)(=O)Nc2ccc3c(c2)C(=O)N([C@H](C)CO)C[C@H](C)[C@@H](CN(C)C(=O)Nc2ccc(C(F)(F)F)cc2)O3)cc1,"inconclusive [inhibitor, single point]",
COc1ccc(N=Nc2cc(C)c(O)c(CN3CCCCC3)c2)cc1,"inconclusive [inhibitor, full curve, poor fit]",
CC(C)(C)c1ccc(OCCSc2nc3ccccc3n2CC(=O)O)cc1,"inconclusive [inhibitor, single point]",
O=C(NCc1nnc(SCc2ccc(C(F)(F)F)cc2)n1-c1ccccc1)C12CC3CC(CC(C3)C1)C2,"inconclusive [inhibitor, partial curve, poor fit]",
COc1ccccc1NC(=O)c1cc(Cl)nnc1Cl,"inconclusive [inhibitor, single point]",
CSc1nnc2[nH]c(=O)cc(C)n12,inactive,
COc1ccccc1Sc1nc(-c2ccccn2)ncc1OC,"inconclusive [inhibitor, partial curve, poor fit]",
CCCCn1nnnc1C(c1ccccc1)N1CCN(c2ccc(OC)cc2)CC1 (configuration not stated),"inconclusive [inhibitor, single point]",
Cc1cc(-c2ccc(S(=O)(=O)Nc3ccc(Br)c(C)c3)s2)on1,"inconclusive [inhibitor, partial curve, poor fit]",
Cc1ccccc1C(=O)NNC(=S)Nc1cccc(C(F)(F)F)c1,"inconclusive [inhibitor, single point]",
COC(=O)c1cccc(NC(=O)CCc2ccccc2)c1,inactive,
CCOC(=O)[C@]12CCC=C1N(Cc1ccc(Cl)cc1Cl)C(=O)[C@H](CC(=O)NCC1CCCCC1)C2,"inconclusive [inhibitor, partial curve, poor fit]",

SMILES,Potency,"activity change, negative = inhibition"
COc1ccc(CN(C)C(=O)c2ccc(COc3ccccc3)cc2)c(OC)c1,"inconclusive [inhibitor, single point]",
CCc1ccc2[nH]c(=O)c(CN(CCN(CC)CC)C(=O)NC3CCCCC3)cc2c1,active: 10 µM,
CC(C)CCNC(=O)C1CCN(Cc2cccc(OCc3ccccc3)c2)CC1,"inconclusive [inhibitor, full curve, poor fit]",
Cc1ccc(OCC(=O)Nc2nc(-c3ccccn3)cs2)c(C)c1,"inconclusive [inhibitor, single point]",
O=C(/C=C/c1ccc2c(c1)OCO2)NCCSCc1ccc(Cl)cc1,active: 5.01 µM,
COc1ccccc1NC(CC(=O)c1ccccc1)C(=O)OCC(=O)c1ccc(C)cc1 (configuration not stated),"inconclusive [inhibitor, single point]",
Cc1cccc(NC(=O)c2ccc(N(C)C3CCCCC3)c([N+](=O)[O-])c2)n1,"inconclusive [inhibitor, single point]",
CCOC(=O)/C(=N\Nc1cc(Cl)ccc1Cl)N1CCN(CC)CC1,"inconclusive [inhibitor, partial curve, poor fit]",
Cc1ccc(Cl)c2sc(N3CCN(C(=O)c4ccco4)CC3)nc12,"inconclusive [inhibitor, single point]",
CCN1C(=O)N(c2ccc(Cl)cc2)C(C)=CC1(C)C,"inconclusive [inhibitor, partial curve, poor fit]",
Clc1cccc(-c2nc3c4ccccc4ccn3c2Cc2ccsc2)c1,"inconclusive [inhibitor, single point]",
Cc1ccccc1Nc1nc(Nc2ccccc2C)nc(SC2=NCCS2)n1,"inconclusive [inhibitor, single point]",
CCCCc1cc(=O)oc2cc(C)cc(OC(C)C(=O)NC(Cc3c[nH]c4ccc(O)cc34)C(=O)O)c12 (configuration not stated),inactive,
COc1ccc2c(CNCCc3ccccc3)c(C(=O)O)n(Cc3cccc(F)c3)c2c1,inactive,
CCOc1ccc(-c2cn3c(n2)sc2cc(C(=O)NC4CCCc5ccccc54)ccc23)cc1 (configuration not stated),inactive,
O=C(O)c1ccc(N/N=C/c2ccc(F)c(F)c2)cc1,"inconclusive [inhibitor, single point]",
O=C(NCC(=O)N1CCC(Cc2ccccc2)CC1)c1ccccc1F,"inconclusive [inhibitor, single point]",
COc1cc(Cl)c(C)cc1NC(=O)CSc1ccc(C)cc1,"inconclusive [inhibitor, single point]",
Cn1c(/C=C/c2ccc(Cl)cc2)c([N+](=O)[O-])c(=O)n(C)c1=O,active: 0.794 µM,
CCCCCCSc1ccc(-c2nc3ccc(Cl)cn3c2NCCCC)cc1OC,"inconclusive [inhibitor, partial curve, poor fit]",
O=C(Nc1ccc(CN2CCOCC2)cc1)c1ccc(Br)o1,inactive,
